# Assay results: PubChem BioAssay AID1345083 (National Center for Advancing Translational Sciences (NCATS), 2018)
# The whole screen tested about 94,000 compounds, of which about 6,200 (6.6%) were called active. This list was built around the results that the source calls inconclusive (neither active nor inactive); the mix of calls is not that of the screen. The call rests on the fitted dose curve; in most records, active means well fitted inhibition curve with a large enough effect; inconclusive means small, poorly fitted or top-dose-only effect; inactive means flat fitted curve, though single readings scatter. Where the call is inconclusive, the potency comes from a doubtful curve fit.
# Assay: Cytotoxic Profiling in HEK 293 Cell Line of Diverse Libraries Using Quantitative High-Throughput Screening; further: nearly all actives have a fitted effect of over 60% in size
# Settings: HEK 293 viability, ATP luminescence (CellTiter-Glo), 48-72 h; series mostly up to 115 µM
# Outline: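 CellTiter-Glo luminescence (cellular ATP) was read after 48 or 72 hr of compound exposure at 37 degree Celsius. Cells were HEK 293 plated at 250 cells/well.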
# Potency means the concentration at half of the fitted maximal effect; tags describe the fitted curve by direction and shape.
row,Structure (SMILES),Potency
1,Cc1noc(-c2cccs2)c1C(=O)N1CCC(Cc2ccccc2)CC1,"inconclusive: 39.8 µM [inhibitor, partial curve, poor fit]"
2,O=C1OCC2=C1C(c1ccc(Cl)cc1)NC(=O)N2CC(=O)N1CCC(Cc2ccccc2)CC1 (configuration not stated),active: 28.2 µM
3,COc1cccc(CN2CCOC3(CCN([S+](=O)([O-])c4cccnc4)CC3)C2=O)c1,"inconclusive: 100 µM [inhibitor, partial curve]"
4,O=C(NC1CCN(c2nc3ncccc3o2)C1)C1CCCC1 (configuration not stated),inactive
5,CCN1c2cc(C(=O)Nc3ccc(OC)c(Cl)c3)ccc2C(=O)N2CCCC21 (configuration not stated),"inconclusive: 79.4 µM [inhibitor, single point]"
6,O=C(c1ccc2sccc2c1)N1CCN(Cc2ccc3c(c2)OCO3)CC1,"inconclusive: 56.2 µM [inhibitor, partial curve, poor fit]"
7,COc1cccc(N2CCN(c3nc(C(=O)NCc4cccnc4)cs3)CC2)c1,active: 31.6 µM
8,Cc1cc(C)cc(-c2ccc(CN3CCCC3C(=O)Nc3ccc(F)cc3)cc2)c1 (configuration not stated),"inconclusive: 89.1 µM [inhibitor, partial curve, poor fit]"
9,CCOc1cc(=O)n2c(c1C(=O)N1CCN(c3ccc(F)cc3)CC1)CCCC2,inactive
10,Cc1nc2cc(N3CCCC(C(=O)NCc4ccc(N(C)C)cc4)C3)cnc2nc1C (configuration not stated),inactive
11,COCCN1Cc2ccc(NCc3ccccc3)nc2C(C)(C(=O)N(C)CCOC)C1 (configuration not stated),"inconclusive: 100 µM [inhibitor, partial curve, poor fit]"
12,O=C(NCc1ccccc1)c1cnc2n1CCN(Cc1cccc(O)c1)CC2,"inconclusive: 112 µM [inhibitor, partial curve, poor fit]"
13,Cc1ccccc1Cn1cc(-c2ccncc2)cc1C(=O)N1CCCC1,"inconclusive: 35.5 µM [inhibitor, partial curve, poor fit]"
14,C[S+](=O)([O-])N1CC2(CCCN(CC3CCCCC3)C2)Cc2ccccc21 (configuration not stated),"inconclusive: 79.4 µM [inhibitor, partial curve, poor fit]"
15,C=CCOc1c(OC)ccc2c1CN(Cc1ccco1)C(=O)CCN2CC(O)COC(C)(C)C (configuration not stated),"inconclusive: 50.1 µM [inhibitor, partial curve, poor fit]"
16,COc1ccc(Cl)cc1-c1ccc2c(c1)C(=O)N1CCN(C(=O)[C@@H](O)c3ccccc3)C[C@H]1C(=O)N2,"inconclusive: 79.4 µM [inhibitor, partial curve, poor fit]"
17,COc1ccccc1-c1cnc(Nc2ccccc2)c2c1CCO2,"inconclusive: 100 µM [inhibitor, partial curve]"
18,COc1ccc(CNC(=O)C2CCN(c3nccc(Nc4ccccc4Cl)n3)CC2)cc1,active: 25.1 µM
19,CN(Cc1cccc(C(F)(F)F)c1)C1CCOc2ccccc21 (configuration not stated),"inconclusive: 100 µM [inhibitor, partial curve]"
20,COc1cc(C)c2c(c1C)C[C@H](C(C)C(=O)N1CCN(CCO)CC1)CC2 (some centres not stated),"inconclusive: 112 µM [inhibitor, single point]"
21,O=C(Nc1ccccc1F)N1CC2CCC(C1)N2Cc1ccc(-c2cc(F)cc(F)c2)cc1,"inconclusive: 50.1 µM [inhibitor, partial curve, poor fit]"

row,Structure (SMILES),Potency
1,CC(C)c1noc(-c2cn(C3CCN(C(=O)c4ccc(F)cc4Cl)C3)nn2)n1 (configuration not stated),"inconclusive: 39.8 µM [inhibitor, partial curve, poor fit]"
2,C[S+](=O)([O-])c1ccc(-c2nccc3c(=O)cc(-c4cccnc4)oc23)cc1,"inconclusive: 89.1 µM [inhibitor, partial curve, poor fit]"
3,Cc1ccc2nc3n(c2c1)[C@@H](CNC1CCOCC1)COC3,inactive
4,COc1ccc(NC(=O)[C@@H]2C[C@@H](c3cccc(C(F)(F)F)c3)N(C)C2)cc1,"inconclusive: 56.2 µM [inhibitor, full curve, poor fit]"
5,O=C(NCCc1ccc(Cl)cc1)c1ccc2nnc(C3CC3)n2c1,"inconclusive: 56.2 µM [inhibitor, partial curve, poor fit]"
6,COC[C@@H]1[C@H](C(=O)NCc2ccc(C)o2)CCCN1C,inactive
7,COCCNC(=O)[C@@H]1C[C@H](Oc2cccnc2)CN1S(=O)(=O)c1cccnc1,inactive
8,O=C(C1CC1)N(C1CCOCC1)C1CCN(S(=O)(=O)c2ccc3c(c2)CCCC3)CC1,"inconclusive: 50.1 µM [inhibitor, partial curve, poor fit]"
9,CC(C)NC(=O)N1CCCC(c2nn(C)c(=O)n2Cc2ccccc2)C1 (configuration not stated),inactive
10,COCCCNC(=O)c1cc(-c2ccc(F)cc2)c2nncn2n1,inactive
11,CN1CCN(C(=O)c2cc(COc3ccc(F)cc3F)on2)CC1c1ccccc1 (configuration not stated),active: 20 µM
12,Cc1ccc(CN2CCC3(CC2)COCCN3C(=O)OCc2ccccc2)o1,active: 28.2 µM
13,O=C(CCn1ccn2nc3c(c2c1=O)CCCC3)Nc1cccc(F)c1,"inconclusive: 79.4 µM [inhibitor, single point]"
14,CCn1cc(C(=O)N2CCC3(CC2)CN(Cc2ccccc2)CC3CO)cn1 (configuration not stated),"inconclusive: 39.8 µM [inhibitor, partial curve]"
15,N#Cc1cccc(CN2CCc3nc(C(=O)NCCOc4ccccc4)oc3CC2)c1,"inconclusive: 100 µM [inhibitor, partial curve, poor fit]"
16,Cn1cncc1-c1nnc([C@H]2CCN(Cc3ccc(Cl)cc3)C2)o1,"inconclusive: 126 µM [inhibitor, single point]"
17,O=C1NCCCCCCN(C(=O)C2CCCC2)[C@H]2CCCC[C@@H]12,inactive
18,CS(=O)(=O)N1CCCN(C(=O)Cc2cccc(F)c2)CCNC(=O)CC1c1ccccc1 (configuration not stated),inactive
19,CCc1c(C)nc(-c2ccc(F)cc2)n(CC(=O)Nc2ccc(OC)c(OC)c2)c1=O,inactive
20,COc1cccc(NC(=O)CCC2CCN(S(=O)(=O)c3c(C)noc3C)CC2)c1,"inconclusive: 39.8 µM [inhibitor, partial curve, poor fit]"
21,CN(C)c1ccc(-c2ccnc(N[C@H]3CO[C@H]4[C@@H]3OC[C@H]4OC(=O)NC3CCCCC3)n2)cc1,"inconclusive: 50.1 µM [inhibitor, partial curve, poor fit]"

row,Structure (SMILES),Potency
1,Cc1ccc(C)c(NC(=O)CN2C(=O)NC(c3ccccc3Cl)C3=C2COC3=O)c1 (configuration not stated),inactive
2,CCCCCC(=O)N1CC(=O)N(CCCc2ccccc2)CC(O)C1 (configuration not stated),"inconclusive: 89.1 µM [inhibitor, single point]"
3,Cc1oc2c(c1C(=O)N1CCN(c3ccccc3)CC1)CN(Cc1ccccc1)CC2,"inconclusive: 89.1 µM [inhibitor, single point]"
4,O=C(c1cc2n(n1)CC(c1ccc(Cl)cc1)OC2)N1CCCCC1 (configuration not stated),"inconclusive: 39.8 µM [inhibitor, full curve, poor fit]"
5,COc1ccccc1-c1ccc(C(=O)N2CCC(NC(=O)c3ccccc3F)CC2)cc1,"inconclusive: 79.4 µM [inhibitor, partial curve, poor fit]"
6,CC1=C(C(=O)OC(C)C)C(c2ccc(C)cc2C)N2C(CC(=O)N3CCCC3)=CSC2=N1 (configuration not stated),"inconclusive: 44.7 µM [inhibitor, partial curve, poor fit]"
7,O=C(Cc1ccsc1)N1CCN(c2cc(-c3cccs3)[nH]n2)CC1,"inconclusive: 89.1 µM [inhibitor, partial curve, poor fit]"
8,Cc1nc2c(c(-c3ccc(Cl)cc3)n1)CN(C(=O)c1ccccc1)CC2,inactive
9,Cn1ncc2c(C(=O)NCC(F)F)cc(-c3ccc(C(F)(F)F)cc3)nc21,"inconclusive: 50.1 µM [inhibitor, partial curve, poor fit]"
10,CN1c2cc(C(=O)N3CCN(c4ccc(F)cc4)CC3)ccc2C(=O)N2CCCCC21 (configuration not stated),"inconclusive: 50.1 µM [inhibitor, partial curve, poor fit]"
11,CC(=O)N1Cc2ccccc2CC2(CCN(Cc3cccnc3)CC2)C1,inactive
12,O=C1N(Cc2cccc(F)c2F)CCCC1(O)CNCc1cccc(F)c1 (configuration not stated),inactive
13,Cc1ccc(N2C(=S)N[C@H]3[C@@H](O)[C@H](O)C[C@@H](C(=O)NCc4cccs4)[C@H]32)cc1Cl,active: 79.4 µM
14,O=C(Nc1ccccc1)c1cnc2c(c1)N(C(=O)Cc1ccc(O)cc1)CCC2,"inconclusive: 100 µM [inhibitor, partial curve, poor fit]"
15,CCS(=O)(=O)Nc1ccc(C2(C(=O)NC3CCCC3)CCCCC2)cc1,"inconclusive: 50.1 µM [inhibitor, partial curve, poor fit]"
16,CCCc1ccc2oc(C(=O)N(C)CCC3CCCCO3)c(C)c2c1 (configuration not stated),"inconclusive: 44.7 µM [inhibitor, full curve, poor fit]"
17,CC(C)(C)CNC1(Cc2cc(-c3cccc(O)c3)on2)COC1,"inconclusive: 100 µM [inhibitor, partial curve, poor fit]"
18,COc1cc([C@@H]2c3cc4c(cc3[C@H](O)[C@@H](CO)[C@@H]2C(=O)NC2CC2)OCO4)cc(OC)c1OC,"inconclusive: 70.8 µM [inhibitor, partial curve, poor fit]"
19,COc1cccc(-c2cc(C3CCN(S(=O)(=O)c4ccc(C(C)=O)cc4)CC3)[nH]n2)c1,"inconclusive: 11.2 µM [inhibitor, full curve, poor fit]"
20,COc1cccc(-c2cc3c(=O)n(CCNC(=O)c4ccccc4)ccn3n2)c1,"inconclusive: 39.8 µM [inhibitor, partial curve, poor fit]"
